In experiment [1] the target is T1, GanA (Bacillus subtilis, UniProt O07012). Conditions: 2.5 mM ONPG; Z buffer; ganA deletion abolishes activity.
For experiment [2], the target named is T1, GanA. Conditions: 2.5 mM ONPG; Z buffer; putatively competitive; catalytic product; qualitative.

T1 sequence (O07012 whole entry): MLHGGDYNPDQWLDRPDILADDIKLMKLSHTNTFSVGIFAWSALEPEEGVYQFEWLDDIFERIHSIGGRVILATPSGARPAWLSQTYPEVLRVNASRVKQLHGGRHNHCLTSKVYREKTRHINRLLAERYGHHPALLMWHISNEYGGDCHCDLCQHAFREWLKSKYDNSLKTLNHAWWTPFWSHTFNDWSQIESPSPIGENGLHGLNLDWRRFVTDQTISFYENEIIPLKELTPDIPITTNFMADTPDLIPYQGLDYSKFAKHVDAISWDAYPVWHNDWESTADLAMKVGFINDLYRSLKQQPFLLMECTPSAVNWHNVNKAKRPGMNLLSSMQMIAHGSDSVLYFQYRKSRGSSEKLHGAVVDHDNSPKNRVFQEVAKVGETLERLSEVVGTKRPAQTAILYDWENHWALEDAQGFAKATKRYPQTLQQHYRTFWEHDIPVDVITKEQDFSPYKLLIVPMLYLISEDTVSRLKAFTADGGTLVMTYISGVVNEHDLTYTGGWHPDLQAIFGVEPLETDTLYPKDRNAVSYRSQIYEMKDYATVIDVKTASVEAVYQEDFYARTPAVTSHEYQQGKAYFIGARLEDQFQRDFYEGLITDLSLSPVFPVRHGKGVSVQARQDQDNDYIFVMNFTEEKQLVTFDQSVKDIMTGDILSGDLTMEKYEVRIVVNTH

Take `O=[N+]([O-])c1ccccc1O[C@@H]1O[C@H](CO)[C@H](O)[C@H](O)[C@H]1O` [ONPG]: the “ONPG hydrolysis in cleared lysate, absorbance at 420 nm” value on GanA [1] was “The catalytic activity of GanA was assayed via ONPG hydrolysis”. With `OC[C@H]1OC(O)[C@H](O)[C@@H](O)[C@H]1O` (some centres unmarked) [galactose], the “% activity with 2.5-20 mM galactose” value at GanA [2] is recorded as “the catalytic activity of GanA (in the cleared protein lysate) was strongly inhibited by addition of galactose”.
